Measurements: PubChem BioAssay (NCATS)
The list shows a part of the results. Shown are side measurements of this screen, not its main read-out; they come without a call. For some of these results: The list favours compounds with an active or inconclusive main result. Words in brackets tell the shape of the fitted curve; partial curves, single points and poor fits give uncertain potencies.

Experiments:
[1] = qHTS drug screen for cell cycle checkpoint inhibitors in PARPi-resistant BRCA-mutant ovarian cancer cell lines. (AID 1963452); settings: PEO1/OlaR viability, CellTiter-Glo luminescence, 96 h
Procedure, shortened: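 PEO1, PEO4 and PEO1/OlaR ovarian cancer cells, 600 per well, exposed 96 h at 37C to a dilution series. Viability read by CellTiter-Glo luminescence, normalized to DMSO and empty wells; activity summarized as Z-AUC.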

[2] = qHTS for identification of novel therapeutic agents for treatment of microphthalmiaassociated transcription factor (MiT) renal cell carcinoma (RCC) (AID 1963991); settings: CellTiter-Glo, 48 h; for z-score: stronger effect = lower value
Procedure, shortened: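 Curves over 11 concentrations were fitted to CellTiter-Glo luminescence, scaled between empty wells (0%) and DMSO (100%) viability. Cells were UOK109, UOK124 and UOK145 TFE3-fusion RCC lines at 500/well, exposed 48 hours at 37 C.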

[3] = measured here: PEO1 parental viability
[4] = TFE3-RCC UOK109 viability, measured here: UOK109 Z-AUC
[5] = TFE3-RCC viability, measured here: UOK124 Z-AUC
[6] = TFE3-RCC viability, measured here: UOK124 cell viability
[7] = TFE3-RCC viability, measured here: UOK145 Z-AUC
[8] = TFE3-RCC viability, measured here: UOK145 cell viability
Tags describe the fitted curve by direction and shape.

SMILES | AC50 [1, 3] | AC50 ([1]; measured here: PEO4 viability) | z-score [2, 4] | z-score [2, 5] | AC50 [2, 6] | z-score [2, 7] | AC50 [2, 8]
CC(C)C(=O)Nc1ncc(-c2cc(C(F)F)nn2-c2c(Cl)cccc2Cl)s1 | 24.5 µM [falling, single point] | 24.5 µM [falling, single point] | -0.158 | -0.264 | 18.7 µM [falling, partial curve] | -0.442 | 33.2 µM [falling, single point]
Cc1cnc(Nc2ccc(F)cc2Cl)nc1-c1c[nH]c(C(=O)N[C@H](CO)c2cccc(Cl)c2)c1 | 7.76 µM [falling, partial curve] | 9.77 µM [falling, partial curve] | -0.422 | -1.8 | 11.8 µM [falling, partial curve] | -0.565 | 13.2 µM [falling, partial curve]
CCc1ccc(OCc2ccccc2C(=O)Nc2ccc3nc(C)cc(N)c3c2)cc1 | 4.36 µM [falling, full curve] | 4.36 µM [falling, full curve] | -0.862 | -0.779 | 5.26 µM [falling, full curve] | -0.408 | 8.33 µM [falling, full curve]
COc1ccc2c(c1)c(C1=C(c3c[nH]c4ccccc34)C(=O)NC1=O)cn2CCCN(C)C | 3.47 µM [falling, partial curve] | 15.5 µM [falling, partial curve] | -0.00317 | -0.748 | 16.6 µM [falling, partial curve] | 0.28 | 23.5 µM [falling, partial curve]
